B1: His6-tagged recombinant iron-regulated surface determinant protein B (IsdB) of Staphylococcus aureus, produced in E. coli (natural protein)
chain: not shown
modifications: biotin-conjugated in the ELISA (sites not given); unlabelled in the MST
notes: IsdB, iron-regulated surface determinant protein B, Staphylococcus aureus; plasmid pQE30/pSE111; also called recombinant IsdB; E. coli-derived IsdB; source: E. coli SCS1, purified (Ni2+ sepharose His-trap, LPS depleted with EndoTrap RED)
B2: His6-tagged recombinant IsdB of Staphylococcus aureus, produced in Lactococcus lactis (natural protein)
chain: not shown
notes: IsdB, iron-regulated surface determinant protein B, Staphylococcus aureus; also called Lac-IsdB; source: Lactococcus lactis PA1001, purified from the growth medium fraction (Ni2+ sepharose His-trap, dialysis)

Biological target: T1, Human TLR4 recombinant active protein (human, UniProt O00206 in part, labelled with RED-NHS 2nd generation dye (NHS ester on primary amines, degree of labelling 0.8) in the MST; unlabelled in the ELISA)
T1 construct: Toll-like receptor 4, human; without MD-2; also called rhTLR4; recombinant human TLR4; source: bought: Abcam
T1 sequence (O00206 27-631): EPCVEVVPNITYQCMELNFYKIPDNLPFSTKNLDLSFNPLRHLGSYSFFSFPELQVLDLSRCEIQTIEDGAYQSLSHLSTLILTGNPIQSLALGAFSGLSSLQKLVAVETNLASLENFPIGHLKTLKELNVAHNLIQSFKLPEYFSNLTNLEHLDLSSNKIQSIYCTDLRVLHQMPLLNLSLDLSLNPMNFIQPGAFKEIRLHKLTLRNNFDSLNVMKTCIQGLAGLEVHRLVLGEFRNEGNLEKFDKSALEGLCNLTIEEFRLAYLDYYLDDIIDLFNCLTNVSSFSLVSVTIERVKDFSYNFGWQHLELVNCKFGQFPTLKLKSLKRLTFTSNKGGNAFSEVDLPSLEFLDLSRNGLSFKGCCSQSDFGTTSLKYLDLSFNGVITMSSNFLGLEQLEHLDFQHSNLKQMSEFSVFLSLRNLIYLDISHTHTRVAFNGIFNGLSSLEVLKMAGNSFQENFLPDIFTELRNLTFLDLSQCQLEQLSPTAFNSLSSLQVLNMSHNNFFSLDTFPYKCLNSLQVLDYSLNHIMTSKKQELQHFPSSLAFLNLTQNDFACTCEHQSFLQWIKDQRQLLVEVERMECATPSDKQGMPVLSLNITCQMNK
Assay: MST; rhTLR4 labelled with RED-NHS 2nd generation dye, diluted to 40 nM and mixed with an equal volume of each of 16 serial dilutions of IsdB or Lac-IsdB (3.6 µM to 0.1 nM); assay buffer with 0.05% Tween 20; 25°C; Monolith NT.115, 80% LED power, medium MST power; no MD-2
Details: both partners purified

Binder | Kd [nM]
B1 | 98.3
B2 | 153

— article PMC10790753, “TLR4 sensing of IsdB of Staphylococcus aureus induces a proinflammatory cytokine response via the NLRP3-caspase-1 inflammasome cascade” (mBio, 2023)
